# Patent publication US11618753B2 (priority 2018, dated 2023)
# Test system: MLKL phosphorylation, HT29-L23 human colorectal adenocarcinoma cells
# Assay: cells
# Conditions: read-out: pMLKL HCS Cell Assay (IC50, uM)
row,SMILES,IC50 [µM]
1,"CCOc1ccc(-c2cc(C(F)(F)F)c3c(N)ncnn23)cc1C(=O)N[C@@H]1CN(C(=O)C2CCC(F)(F)C2)C[C@@H]1F (stereo partly drawn) [Example 1102, 5-[4-amino-5-(trifluoromethyl)pyrrolo[2,1-f][1,2,4]triazin-7-yl]-N-[(3R,4S)-1-(3,3-difluorocyclopentanecarbonyl)-4-fluoropyrrolidin-3-yl]-2-ethoxybenzamide]",0.019
2,"CCOc1ccc(-c2cc(C(F)(F)F)c3c(N)ncnn23)cc1C(=O)N[C@@H]1CN(C(=O)C2CC(F)(F)C2)C[C@@H]1F [Example 1103, 5-[4-amino-5-(trifluoromethyl)pyrrolo[2,1-f][1,2,4]triazin-7-yl]-N-[(3R,4S)-1-(3,3-difluorocyclobutanecarbonyl)-4-fluoropyrrolidin-3-yl]-2-ethoxybenzamide]",0.022
3,"CCOc1ccc(-c2cc(C(F)(F)F)c3c(N)ncnn23)cc1C(=O)N[C@@H]1CN(C(=O)C2(F)CC2)C[C@@H]1F [Example 1104, 5-[4-amino-5-(trifluoromethyl)pyrrolo[2,1-f][1,2,4]triazin-7-yl]-2-ethoxy-N-[(3R,4S)-4-fluoro-1-(1-fluorocyclopropanecarbonyl)pyrrolidin-3-yl]benzamide]",0.057
4,"CCOc1ccc(-c2cc(C(F)(F)F)c3c(N)ncnn23)cc1C(=O)N[C@@H]1CN(C(=O)C(C)(C)F)C[C@@H]1F [Example 1105, 5-[4-amino-5-(trifluoromethyl)pyrrolo[2,1-f][1,2,4]triazin-7-yl]-2-ethoxy-N-[(3R,4S)-4-fluoro-1-(2-fluoro-2-methylpropanoyl)pyrrolidin-3-yl]benzamide]",0.114
5,"CCOc1ccc(-c2cc(C(F)(F)F)c3c(N)ncnn23)cc1C(=O)N[C@@H]1CN(C(=O)CC(O)(C(F)(F)F)C(F)(F)F)C[C@@H]1F [Example 1106, 5-[4-amino-5-(trifluoromethyl)pyrrolo[2,1-f][1,2,4]triazin-7-yl]-2-ethoxy-N-[(3R,4S)-4-fluoro-1-[4,4,4-trifluoro-3-hydroxy-3-(trifluoromethyl)butanoyl]pyrrolidin-3-yl]benzamide]",0.0043
6,"CCOc1ccc(-c2cc(C(F)(F)F)c3c(N)ncnn23)cc1C(=O)N[C@@H]1CN(C(=O)[C@@](C)(O)C(F)(F)F)C[C@@H]1F [Example 1107, 5-[4-amino-5-(trifluoromethyl)pyrrolo[2,1-f][1,2,4]triazin-7-yl]-2-ethoxy-N-[(3R,4S)-4-fluoro-1-[(2R)-3,3,3-trifluoro-2-hydroxy-2-methylpropanoyl]pyrrolidin-3-yl]benzamide]",0.0047
7,"CCOc1ccc(-c2cc(C(F)(F)F)c3c(N)ncnn23)cc1C(=O)N[C@@H]1CN(C(=O)C(O)(CC)C(F)(F)F)C[C@@H]1F (stereo partly drawn) [Example 1109, 5-[4-amino-5-(trifluoromethyl)pyrrolo[2,1-f][1,2,4]triazin-7-yl]-2-ethoxy-N-[(3R,4S)-4-fluoro-1-[2-hydroxy-2-(trifluoromethyl)butanoyl]pyrrolidin-3-yl]benzamide]",0.019
8,"CCOc1ccc(-c2cc(C(F)(F)F)c3c(N)ncnn23)cc1C(=O)N[C@@H]1CN(C(=O)CC(C(F)(F)F)C(F)(F)F)C[C@@H]1F [Example 1110, 5-[4-amino-5-(trifluoromethyl)pyrrolo[2,1-f][1,2,4]triazin-7-yl]-2-ethoxy-N-[(3R,4S)-4-fluoro-1-[4,4,4-trifluoro-3-(trifluoromethyl)butanoyl]pyrrolidin-3-yl]benzamide]",0.018
9,"CCOc1ccc(-c2cc(C(F)(F)F)c3c(N)ncnn23)cc1C(=O)N[C@@H]1CN(C(=O)C(C)C(F)(F)F)C[C@@H]1F (stereo partly drawn) [Example 1111, 5-[4-amino-5-(trifluoromethyl)pyrrolo[2,1-f][1,2,4]triazin-7-yl]-2-ethoxy-N-[(3R,4S)-4-fluoro-1-(3,3,3-trifluoro-2-methylpropanoyl)pyrrolidin-3-yl]benzamide]",0.033
10,"CCOc1ccc(-c2cc(C(F)(F)F)c3c(N)ncnn23)cc1C(=O)N[C@@H]1CN(C(=O)CC(C)C)C[C@@H]1F [Example 1113, 5-[4-amino-5-(trifluoromethyl)pyrrolo[2,1-f][1,2,4]triazin-7-yl]-2-ethoxy-N-[(3R,4S)-4-fluoro-1-(3-methylbutanoyl)pyrrolidin-3-yl]benzamide]",0.029
11,"COc1ccc(-c2cc(C(F)(F)F)c3c(N)ncnn23)cc1C(=O)N[C@@H]1CN(C(=O)C(C)(C)O)C[C@@H]1F [Example 1116, 5-[4-amino-5-(trifluoromethyl)pyrrolo[2,1-f][1,2,4]triazin-7-yl]-N-[(3R,4S)-4-fluoro-1-(2-hydroxy-2-methylpropanoyl)pyrrolidin-3-yl]-2-methoxybenzamide]",0.049
12,"COc1ccc(-c2cc(C(F)(F)F)c3c(N)ncnn23)cc1C(=O)N[C@@H]1CN(C(=O)CC(C)C)C[C@@H]1F [Example 1117, 5-[4-amino-5-(trifluoromethyl)pyrrolo[2,1-f][1,2,4]triazin-7-yl]-N-[(3R,4S)-4-fluoro-1-(3-methylbutanoyl)pyrrolidin-3-yl]-2-methoxybenzamide]",0.0073
13,"COc1ccc(-c2cc(C(F)(F)F)c3c(N)ncnn23)cc1C(=O)N[C@@H]1CN(C(=O)C(C)(C)F)C[C@@H]1F [Example 1119, 5-[4-amino-5-(trifluoromethyl)pyrrolo[2,1-f][1,2,4]triazin-7-yl]-N-[(3R,4S)-4-fluoro-1-(2-fluoro-2-methylpropanoyl)pyrrolidin-3-yl]-2-methoxybenzamide]",0.035
14,"COc1ccc(-c2cc(C(F)(F)F)c3c(N)ncnn23)cc1C(=O)N[C@@H]1CN(C(=O)[C@@](C)(O)C(F)(F)F)C[C@@H]1F [Example 1120, 5-[4-amino-5-(trifluoromethyl)pyrrolo[2,1-f][1,2,4]triazin-7-yl]-N-[(3R,4S)-4-fluoro-1-[(28)-3,3,3-trifluoro-2-hydroxy-2-methylpropanoyl]pyrrolidin-3-yl]-2-methoxybenzamide]",0.0015
15,"COc1ccc(-c2cc(C(F)(F)F)c3c(N)ncnn23)cc1C(=O)N[C@@H]1CN(C(=O)CC(F)(F)F)C[C@@H]1F [Example 1121, 5-[4-amino-5-(trifluoromethyl)pyrrolo[2,1-f][1,2,4]triazin-7-yl]-N-[(3R,4S)-4-fluoro-1-(3,3,3-trifluoropropanoyl)pyrrolidin-3-yl]-2-methoxybenzamide]",0.039
16,"CCC(O)(C(=O)N1C[C@H](F)[C@H](NC(=O)c2cc(-c3cc(C(F)(F)F)c4c(N)ncnn34)ccc2OC)C1)C(F)(F)F (stereo partly drawn) [Example 1122, 5-[4-amino-5-(trifluoromethyl)pyrrolo[2,1-f][1,2,4]triazin-7-yl]-N-[(3R,4S)-4-fluoro-1-[2-hydroxy-2-(trifluoromethyl)butanoyl]pyrrolidin-3-yl]-2-methoxybenzamide]",0.0086
17,"COc1ccc(-c2cc(C(F)(F)F)c3c(N)ncnn23)cc1C(=O)N[C@@H]1CN(C(=O)C(C)C(F)(F)F)C[C@@H]1F (stereo partly drawn) [Example 1123, 5-[4-amino-5-(trifluoromethyl)pyrrolo[2,1-f][1,2,4]triazin-7-yl]-N-[(3R,4S)-4-fluoro-1-(3,3,3-trifluoro-2-methylpropanoyl)pyrrolidin-3-yl]-2-methoxybenzamide]",0.031
18,"COc1ccc(-c2cc(C(F)(F)F)c3c(N)ncnn23)cc1C(=O)N[C@@H]1CN(C(=O)c2ccccc2F)C[C@@H]1F [Example 1124, 5-[4-amino-5-(trifluoromethyl)pyrrolo[2,1-f][1,2,4]triazin-7-yl]-N-[(3R,4S)-4-fluoro-1-(2-fluorobenzoyl)pyrrolidin-3-yl]-2-methoxybenzamide]",0.0055
19,"COc1ccc(-c2cc(C(F)(F)F)c3c(N)ncnn23)cc1C(=O)N[C@@H]1CN(C(=O)CC(O)(C(F)(F)F)C(F)(F)F)C[C@@H]1F [Example 1126, 5-[4-amino-5-(trifluoromethyl)pyrrolo[2,1-f][1,2,4]triazin-7-yl]-N-[(3R,4S)-4-fluoro-1-[4,4,4-trifluoro-3-hydroxy-3-(trifluoromethyl)butanoyl]pyrrolidin-3-yl]-2-methoxybenzamide]",0.0018
20,"COc1ccc(-c2cc(C(F)(F)F)c3c(N)ncnn23)cc1C(=O)N[C@@H]1CN(C(=O)C2(F)CC2)C[C@@H]1F [Example 1127, 5-[4-amino-5-(trifluoromethyl)pyrrolo[2,1-f][1,2,4]triazin-7-yl]-N-[(3R,4S)-4-fluoro-1-(1-fluorocyclopropanecarbonyl)pyrrolidin-3-yl]-2-methoxybenzamide]",0.014
21,"COc1ccc(-c2cc(C(F)(F)F)c3c(N)ncnn23)cc1C(=O)N[C@@H]1CN(C(=O)C2CC(F)(F)C2)C[C@@H]1F [Example 1128, 5-[4-amino-5-(trifluoromethyl)pyrrolo[2,1-f][1,2,4]triazin-7-yl]-N-[(3R,4S)-1-(3,3-difluorocyclobutanecarbonyl)-4-fluoropyrrolidin-3-yl]-2-methoxybenzamide]",0.01
22,"COc1ccc(-c2cc(C(F)(F)F)c3c(N)ncnn23)cc1C(=O)N[C@@H]1CN(C(=O)C2CCC(F)(F)CC2)C[C@@H]1F [Example 1129, 5-[4-amino-5-(trifluoromethyl)pyrrolo[2,1-f][1,2,4]triazin-7-yl]-N-[(3R,4S)-1-(4,4-difluorocyclohexanecarbonyl)-4-fluoropyrrolidin-3-yl]-2-methoxybenzamide]",0.037
23,"COc1ccc(-c2cc(C(F)(F)F)c3c(N)ncnn23)cc1C(=O)N[C@@H]1CN(C(=O)CC(C)(O)C(F)(F)F)C[C@@H]1F (stereo partly drawn) [Example 1130, 5-[4-amino-5-(trifluoromethyl)pyrrolo[2,1-f][1,2,4]triazin-7-yl]-N-[(3R,4S)-4-fluoro-1-(4,4,4-trifluoro-3-hydroxy-3-methylbutanoyl)pyrrolidin-3-yl]-2-methoxybenzamide]",0.015
24,"COc1ccc(-c2cc(C(F)(F)F)c3c(N)ncnn23)cc1C(=O)N[C@@H]1CN(C(=O)CC(C(F)(F)F)C(F)(F)F)C[C@@H]1F [Example 1131, 5-[4-amino-5-(trifluoromethyl)pyrrolo[2,1-f][1,2,4]triazin-7-yl]-N-[(3R,4S)-4-fluoro-1-[4,4,4-trifluoro-3-(trifluoromethyl)butanoyl]pyrrolidin-3-yl]-2-methoxybenzamide]",0.0033
